This note sets out measurements from article PMC4336329 (PLoS ONE, 2015).

The structures appear in SMILES notation. Out of some 310,000 compounds screened, about 14,000 (4.5%) showed an effect of 50% or more. The effect is printed as a negative number. This is one part of the list.
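Note: peak tail current of the secondary pulse compared with the same well before compound.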

In this assay the target is human ether-à-go-go-related gene (hERG) potassium channel (human, UniProt Q12809). The experiment in a line: primary screen, population patch clamp on CHO cells stably expressing hERG.
human ether-à-go-go-related gene (hERG) potassium channel, sequence (Q12809 whole entry, looked up): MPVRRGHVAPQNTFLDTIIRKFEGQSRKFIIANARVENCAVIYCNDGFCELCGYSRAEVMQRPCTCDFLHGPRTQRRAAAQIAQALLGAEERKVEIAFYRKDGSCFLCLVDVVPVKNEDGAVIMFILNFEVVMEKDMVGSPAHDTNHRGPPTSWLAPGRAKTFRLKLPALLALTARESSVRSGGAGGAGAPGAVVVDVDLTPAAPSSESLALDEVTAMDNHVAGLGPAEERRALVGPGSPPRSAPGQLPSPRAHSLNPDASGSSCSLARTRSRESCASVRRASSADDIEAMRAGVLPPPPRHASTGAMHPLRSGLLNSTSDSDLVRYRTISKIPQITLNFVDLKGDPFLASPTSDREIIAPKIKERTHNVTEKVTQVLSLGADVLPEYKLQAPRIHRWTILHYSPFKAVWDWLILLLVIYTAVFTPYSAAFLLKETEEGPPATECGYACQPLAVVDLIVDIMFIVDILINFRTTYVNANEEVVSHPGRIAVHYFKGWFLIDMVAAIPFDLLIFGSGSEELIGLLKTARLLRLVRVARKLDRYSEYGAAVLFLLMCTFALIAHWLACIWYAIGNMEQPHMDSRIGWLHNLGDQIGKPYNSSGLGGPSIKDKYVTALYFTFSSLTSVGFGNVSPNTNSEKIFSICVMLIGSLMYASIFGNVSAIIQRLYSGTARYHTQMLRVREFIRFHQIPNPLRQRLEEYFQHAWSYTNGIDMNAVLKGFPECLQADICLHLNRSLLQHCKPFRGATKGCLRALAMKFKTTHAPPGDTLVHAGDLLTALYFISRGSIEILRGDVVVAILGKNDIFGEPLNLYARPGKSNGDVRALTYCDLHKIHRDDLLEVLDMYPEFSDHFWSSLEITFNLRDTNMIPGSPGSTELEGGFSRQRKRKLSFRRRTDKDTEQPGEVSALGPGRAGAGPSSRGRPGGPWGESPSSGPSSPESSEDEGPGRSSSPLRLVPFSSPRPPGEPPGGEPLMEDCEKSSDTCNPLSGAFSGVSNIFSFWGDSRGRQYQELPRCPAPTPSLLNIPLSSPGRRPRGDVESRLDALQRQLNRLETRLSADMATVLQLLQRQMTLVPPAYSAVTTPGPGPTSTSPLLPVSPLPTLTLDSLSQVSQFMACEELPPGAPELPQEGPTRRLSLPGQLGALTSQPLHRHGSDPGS
Take `CC(=O)Nc1ccc(CN2CCCC(CO)(Cc3cccc(Cl)c3)C2)cc1` (stereo not drawn): the “hERG current change (%, negative = inhibition) at 10uM” value is -39.2%.

In the case of `COc1ccc(-c2nc3n(c(=O)c2C#N)CCCS3)cc1`, the “hERG current change (%, negative = inhibition) at 10uM” value is -4.57%.

Take `O=C(c1cccn(Cc2cccc(Cl)c2)c1=O)N1CCOCC1`: the “hERG current change (%, negative = inhibition) at 10uM” value was found to be 0.239%.

As to `N#Cc1ccc(CN2CCN(C(=O)c3ccccc3)CC2)c(Cl)c1`, the “hERG current change (%, negative = inhibition) at 10uM” value was -33.2%.

As to `S=C1NCN(CCc2ccccc2)CN1Cc1ccccc1`, the “hERG current change (%, negative = inhibition) at 10uM” value is recorded as 14.8%.

On to `CCCCn1c(O)c(C=Nc2c(C)n(C)n(-c3ccccc3)c2=O)c(=O)[nH]c1=O`, for which the “hERG current change (%, negative = inhibition) at 10uM” value came to 4.96%.

For `CCOC(=O)CSc1ccc(-c2nc3ccccc3[nH]2)cn1`, the “hERG current change (%, negative = inhibition) at 10uM” value is -7.44%.

As to `FC(F)(F)c1cccc(-c2nc(-c3ccncc3)no2)c1`, the “hERG current change (%, negative = inhibition) at 10uM” value turned out to be 5.61%.

For the compound `Cc1ccc(S(=O)(=O)N(C)c2ccc(C(=O)NCc3ccccn3)cc2)cc1`, the “hERG current change (%, negative = inhibition) at 10uM” value is -11.7%.

On to `CCOc1ccc2nc(N3CCC(C(=O)Nc4nnc(CC)s4)CC3)sc2c1`, for which the “hERG current change (%, negative = inhibition) at 10uM” value was 11.9%.

As to `COc1cc(C=C2C(=O)c3ccccc3C2=O)cc(OC)c1OC`, the “hERG current change (%, negative = inhibition) at 10uM” value was 22.8%.

Consider `Fc1cccc(Cl)c1-c1nnc2ccc(C(F)(F)F)cn12`, for which the “hERG current change (%, negative = inhibition) at 10uM” value is listed as 10.9%.

As to `CCCCc1nnc(SCc2ccc(OCC)cc2)n1N`, the “hERG current change (%, negative = inhibition) at 10uM” value was determined as 0.428%.

In the case of `CC(C)[C@H](NC(=O)NCCc1ccccc1)C(=O)O`, the “hERG current change (%, negative = inhibition) at 10uM” value was found to be 9.27%.

As for `CC(=O)Nc1ccc([C@H]2[C@H](C)CC[C@H]3C(=O)N4[C@@H](CC[C@@H](C)[C@@H]4c4ccc(NC(C)=O)cc4)C(=O)N32)cc1`, the “hERG current change (%, negative = inhibition) at 10uM” value is listed as 24.7%.

With `CC1CCN(S(=O)(=O)c2ccc3c(c2)N(CC(=O)N(C)Cc2ccco2)C(=O)CO3)CC1`, the “hERG current change (%, negative = inhibition) at 10uM” value stood at 14.6%.

For the compound `CN1CCN(c2nc3c(c(=O)[nH]c(=O)n3C)n2CCSc2nc3ccccc3s2)CC1`, the “hERG current change (%, negative = inhibition) at 10uM” value is recorded as -12.3%.

As to `CC(=O)c1cccc(NC(=O)NCc2ccccn2)c1`, the “hERG current change (%, negative = inhibition) at 10uM” value was -5.95%.

As for `CCCN(CCC)CCN1C(=O)C2C(C(=O)Nc3ccc(C)cc3)C3C=CC2(O3)C1C(=O)NC1CCCCC1` (stereo not drawn), the “hERG current change (%, negative = inhibition) at 10uM” value is -30.2%.

As for `COc1ccc(C2C(C#N)=C(N)Oc3cc4c(cc32)OCO4)cc1` (stereo not drawn), the “hERG current change (%, negative = inhibition) at 10uM” value was -9.12%.

As for `C/C(=N\Nc1cccc2cccnc12)c1ccc[nH]1`, the “hERG current change (%, negative = inhibition) at 10uM” value is listed as 11.6%.

For the compound `Cc1ccc(CN2C(=O)N/C(=C\c3cccn3-c3cccc(C(=O)O)c3)C2=O)cc1`, the “hERG current change (%, negative = inhibition) at 10uM” value is given as 7.47%.

In the case of `CN1CCCN(S(=O)(=O)c2ccc3ccccc3c2)CC1`, the “hERG current change (%, negative = inhibition) at 10uM” value was found to be 1.43%.

As for `O=P(O)(O)c1ccccc1OCc1ccccc1`, the “hERG current change (%, negative = inhibition) at 10uM” value is -1.55%.
